# Measured values: the supplement of paper PMC8728848
# Some of the results follow.
# Tests used:
# Experiment in all cases: glycan array binding signal (z-score within array); higher = stronger binding
# Conditions in all cases: glycan notation: IUPAC condensed, linker removed
# [1] = target: Fuc(a1-3)[Gal(b1-4)]GlcNAc
# Method in brief: (§1)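 The binding signal is a Z-score computed within each array. Data were drawn from 3228 arrays in the Consortium for Functional Glycomics database, restricted to those with a known protein sequence. Scores were averaged over arrays of the same protein sequence at different concentrations or buffers, and over linkers, and negative values can be taken as non-binding.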
# [2] = target: Fuc(a1-3)[Gal(b1-4)]GlcNAc(b1-2)Man
# Method in brief: as §1
# [3] = target: Fuc(a1-3)[Gal(b1-4)]GlcNAc(b1-2)Man(a1-3)[Fuc(a1-3)[Gal(b1-4)]GlcNAc(b1-2)Man(a1-6)]Man(b1-4)GlcNAc(b1-4)GlcNAc
# Method in brief: as §1
# [4] = target: Fuc(a1-3)[Gal(b1-4)]GlcNAc(b1-2)Man(a1-3)[Fuc(a1-3)[Gal(b1-4)]GlcNAc(b1-2)Man(a1-6)]Man(b1-4)GlcNAc(b1-4)[Fuc(a1-6)]GlcNAc
# Method in brief: as §1
# [5] = target: Fuc(a1-3)[Gal(b1-4)]GlcNAc(b1-3)Gal(b1-3)[Fuc(a1-4)]GlcNAc
# Method in brief: as §1
# [6] = target: Fuc(a1-3)[Gal(b1-4)]GlcNAc(b1-3)Gal(b1-4)[Fuc(a1-3)]GlcNAc
# Method in brief: as §1
# [7] = target: Fuc(a1-3)[Gal(b1-4)]GlcNAc(b1-3)Gal(b1-4)[Fuc(a1-3)]GlcNAc(b1-3)Gal(b1-4)[Fuc(a1-3)]GlcNAc
# Method in brief: as §1
# [8] = target: Fuc(a1-3)[Gal(b1-4)]GlcNAc(b1-3)GalNAc
# Method in brief: as §1
# [9] = target: Fuc(a1-3)[Gal(b1-4)]GlcNAc(b1-4)Gal(b1-4)[Fuc(a1-3)]GlcNAc
# Method in brief: as §1
# [10] = target: Fuc(a1-3)[Gal(b1-4)]GlcNAc(b1-4)Gal(b1-4)[Fuc(a1-3)]GlcNAc(b1-4)Gal(b1-4)[Fuc(a1-3)]GlcNAc
# Method in brief: as §1
# [11] = target: Fuc(a1-3)[Gal(b1-4)]GlcNAc(b1-6)GalNAc
# Method in brief: as §1
# [12] = target: Fuc(a1-3)[Gal(b1-4)]GlcNAc(b1-6)[Gal(b1-3)GlcNAc(b1-3)]Gal(b1-4)Glc
# Method in brief: as §1
# [13] = target: Fuc(a1-3)[Gal(b1-4)]GlcNAc(b1-6)[Neu5Ac(a2-3)Gal(b1-3)]GalNAc
# Method in brief: as §1
# [14] = target: Fuc(a1-3)[Gal(b1-4)]GlcNAc6S
# Method in brief: as §1
# [15] = target: Fuc(a1-3)[Gal3S(b1-4)]Glc
# Method in brief: as §1
# [16] = target: Fuc(a1-3)[Gal3S(b1-4)]GlcNAc
# Method in brief: as §1
# [17] = target: Fuc(a1-3)[Gal3S(b1-4)]GlcNAc6S
# Method in brief: as §1
# [18] = target: Fuc(a1-3)[GalNAc(b1-4)]GlcNAc
# Method in brief: as §1
# [19] = target: Fuc(a1-3)[GalNAc(b1-4)]GlcNAc6S
# Method in brief: as §1
# [20] = target: Fuc(a1-4)GlcNAc
# Method in brief: as §1
# [21] = target: Fuc(b1-3)GlcNAc
# Method in brief: as §1
# [22] = target: Gal(a1-2)Gal
# Method in brief: as §1
# [23] = target: Gal(a1-3)Gal
# Method in brief: as §1
# [24] = target: Gal(a1-3)Gal(b1-3)GlcNAc
# Method in brief: as §1
# [25] = target: Gal(a1-3)Gal(b1-3)GlcNAc(b1-2)Man
# Method in brief: as §1
# [26] = target: Gal(a1-3)Gal(b1-3)GlcNAc(b1-2)Man(a1-3)[Gal(a1-3)Gal(b1-3)GlcNAc(b1-2)Man(a1-6)]Man(b1-4)GlcNAc(b1-4)GlcNAc
# Method in brief: as §1
# [27] = target: Gal(a1-3)Gal(b1-3)GlcNAc(b1-3)GalNAc
# Method in brief: as §1
# [28] = target: Gal(a1-3)Gal(b1-3)GlcNAc(b1-6)GalNAc
# Method in brief: as §1
# [29] = target: Gal(a1-3)Gal(b1-3)[Fuc(a1-4)]GlcNAc(b1-2)Man(a1-3)[Gal(a1-3)Gal(b1-3)[Fuc(a1-4)]GlcNAc(b1-2)Man(a1-6)]Man(b1-4)GlcNAc(b1-4)GlcNAc
# Method in brief: as §1
# [30] = target: Gal(a1-3)Gal(b1-4)Glc
# Method in brief: as §1
# [31] = target: Gal(a1-3)Gal(b1-4)GlcNAc
# Method in brief: as §1
# [32] = target: Gal(a1-3)Gal(b1-4)GlcNAc(b1-2)Man
# Method in brief: as §1
# [33] = target: Gal(a1-3)Gal(b1-4)GlcNAc(b1-2)Man(a1-3)[Gal(a1-3)Gal(b1-4)GlcNAc(b1-2)Man(a1-6)]Man(b1-4)GlcNAc(b1-4)GlcNAc
# Method in brief: as §1
# [34] = target: Gal(a1-3)Gal(b1-4)GlcNAc(b1-3)GalNAc
# Method in brief: as §1
# [35] = target: Gal(a1-3)Gal(b1-4)GlcNAc(b1-6)GalNAc
# Method in brief: as §1
# [36] = target: Gal(a1-3)Gal(b1-4)[Fuc(a1-3)]GlcNAc
# Method in brief: as §1
# [37] = target: Gal(a1-3)Gal(b1-4)[Fuc(a1-3)]GlcNAc(b1-2)Man(a1-3)[Gal(a1-3)Gal(b1-4)[Fuc(a1-3)]GlcNAc(b1-2)Man(a1-6)]Man(b1-4)GlcNAc(b1-4)GlcNAc
# Method in brief: as §1
# [38] = target: Gal(a1-3)GalNAc
# Method in brief: as §1
binder,measurement,setting,value
PpFlo1 (Pichia pastoris) (protein) MGSSHHHHHHSSGLVPRGSHMQESGDGDISDSAYACDIDATRYDGFNATIYEFQPGDGRLTRDPVFMSTGYLNRTQLHSITGVTDPGFSIYTPGVPTTTLYGIPNVNWENLLLELKGYFRAEVSGDYGLSLRNIDDSAILFFGKETAFQCCNENSISNEASTDYSLFTIFRQEGDETTNLDSFTYTQYLEAGKYYPVRTFFVNIERHAVFNFTMTLPDGTELTDFHNYIYQFGALDEEQCQA,glycan array binding signal (z-score),[1],0.264
same,glycan array binding signal (z-score),[2],-0.493
same,glycan array binding signal (z-score),[3],0.432
same,glycan array binding signal (z-score),[4],0.155
same,glycan array binding signal (z-score),[5],-0.101
same,glycan array binding signal (z-score),[6],-0.46
same,glycan array binding signal (z-score),[7],-0.162
same,glycan array binding signal (z-score),[8],1.43
same,glycan array binding signal (z-score),[9],-0.534
same,glycan array binding signal (z-score),[10],0.104
same,glycan array binding signal (z-score),[11],0.985
same,glycan array binding signal (z-score),[12],-0.249
same,glycan array binding signal (z-score),[13],3.09
same,glycan array binding signal (z-score),[14],0.039
same,glycan array binding signal (z-score),[15],0.321
same,glycan array binding signal (z-score),[16],-0.214
same,glycan array binding signal (z-score),[17],0.286
same,glycan array binding signal (z-score),[18],0.064
same,glycan array binding signal (z-score),[19],-0.225
same,glycan array binding signal (z-score),[20],-0.437
same,glycan array binding signal (z-score),[21],-0.474
same,glycan array binding signal (z-score),[22],-0.187
same,glycan array binding signal (z-score),[23],-0.643
same,glycan array binding signal (z-score),[24],-0.234
same,glycan array binding signal (z-score),[25],-0.134
same,glycan array binding signal (z-score),[26],0.536
same,glycan array binding signal (z-score),[27],0.05
same,glycan array binding signal (z-score),[28],0.288
same,glycan array binding signal (z-score),[29],-0.327
same,glycan array binding signal (z-score),[30],-0.504
same,glycan array binding signal (z-score),[31],0.42
same,glycan array binding signal (z-score),[32],-0.266
same,glycan array binding signal (z-score),[33],-0.305
same,glycan array binding signal (z-score),[34],-0.082
same,glycan array binding signal (z-score),[35],0.364
same,glycan array binding signal (z-score),[36],1.04
same,glycan array binding signal (z-score),[37],-0.332
same,glycan array binding signal (z-score),[38],-0.319
